No constants are given. Whether binding was seen depends on the method and setting. Some binding calls cover weakened binding; strength is not graded here.

Our source for the binding values is paper PMC7876033.

Assay in all cases: two-hybrid; pair-wise; GAL4 DNA-binding domain (pPC97) and GAL4 activation domain (pPC86) fusions co-transformed into yeast strain CG1945; growth on SD/-Trp-Leu-His with 1 mM 3AT
In assay [1] the target is T1, isopropylmalate dehydrogenase 3 (IPMDH3) (Arabidopsis thaliana) (UniProt Q9SA14).
T1 sequence: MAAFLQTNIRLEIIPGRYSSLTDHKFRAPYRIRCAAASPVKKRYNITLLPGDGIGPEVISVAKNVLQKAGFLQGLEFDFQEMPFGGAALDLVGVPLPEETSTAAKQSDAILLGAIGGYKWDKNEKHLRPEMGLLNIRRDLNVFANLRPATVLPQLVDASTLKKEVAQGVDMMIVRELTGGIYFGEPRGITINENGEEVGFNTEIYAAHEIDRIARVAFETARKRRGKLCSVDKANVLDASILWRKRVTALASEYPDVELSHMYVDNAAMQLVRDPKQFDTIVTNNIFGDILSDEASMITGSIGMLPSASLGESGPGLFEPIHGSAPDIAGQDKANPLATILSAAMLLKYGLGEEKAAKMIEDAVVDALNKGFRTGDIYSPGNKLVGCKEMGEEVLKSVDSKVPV

For assay [2], the target named is T2, isopropylmalate dehydrogenase 2 (IPMDH2) (Arabidopsis thaliana) (UniProt P93832).
T2 sequence: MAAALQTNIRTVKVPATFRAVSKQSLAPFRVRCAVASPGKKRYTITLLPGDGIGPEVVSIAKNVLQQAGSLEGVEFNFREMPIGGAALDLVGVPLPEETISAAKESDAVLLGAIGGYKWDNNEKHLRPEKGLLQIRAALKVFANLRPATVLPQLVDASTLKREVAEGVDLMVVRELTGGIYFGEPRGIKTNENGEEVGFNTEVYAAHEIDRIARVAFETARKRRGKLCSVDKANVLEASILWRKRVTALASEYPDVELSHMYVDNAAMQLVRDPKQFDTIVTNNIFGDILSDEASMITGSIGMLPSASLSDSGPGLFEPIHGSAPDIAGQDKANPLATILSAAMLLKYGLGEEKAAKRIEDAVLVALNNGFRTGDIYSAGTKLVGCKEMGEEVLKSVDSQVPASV

In assay [3] the target is T3, isopropylmalate isomerase (IPMI) small subunit LeuD2 (Arabidopsis thaliana) (UniProt Q9LYT7).
T3 sequence: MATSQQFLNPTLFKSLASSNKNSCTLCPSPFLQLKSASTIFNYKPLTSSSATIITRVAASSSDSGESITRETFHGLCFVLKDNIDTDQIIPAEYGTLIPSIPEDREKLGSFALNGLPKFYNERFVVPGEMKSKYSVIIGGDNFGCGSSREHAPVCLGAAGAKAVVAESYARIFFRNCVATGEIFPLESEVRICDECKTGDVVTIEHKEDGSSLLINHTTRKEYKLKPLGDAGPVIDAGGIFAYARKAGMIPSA

Assay [4] addresses T4, isopropylmalate dehydrogenase 1 (IPMDH1) (Arabidopsis thaliana) (UniProt Q9FMT1).
T4 sequence: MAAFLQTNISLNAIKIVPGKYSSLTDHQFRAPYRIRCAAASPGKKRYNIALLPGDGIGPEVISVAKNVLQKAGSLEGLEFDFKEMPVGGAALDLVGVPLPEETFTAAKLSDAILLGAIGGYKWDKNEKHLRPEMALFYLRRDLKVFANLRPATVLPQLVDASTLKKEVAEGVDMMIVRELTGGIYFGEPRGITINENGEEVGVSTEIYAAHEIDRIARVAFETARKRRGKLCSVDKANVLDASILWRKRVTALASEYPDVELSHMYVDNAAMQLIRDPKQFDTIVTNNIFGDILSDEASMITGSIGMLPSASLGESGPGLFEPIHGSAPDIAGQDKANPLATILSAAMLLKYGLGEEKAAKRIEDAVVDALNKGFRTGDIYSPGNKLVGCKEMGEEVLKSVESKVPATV

The target of assay [5] is T5, isopropylmalate isomerase (IPMI) small subunit LeuD3 (Arabidopsis thaliana) (UniProt Q9ZW85).
T5 sequence: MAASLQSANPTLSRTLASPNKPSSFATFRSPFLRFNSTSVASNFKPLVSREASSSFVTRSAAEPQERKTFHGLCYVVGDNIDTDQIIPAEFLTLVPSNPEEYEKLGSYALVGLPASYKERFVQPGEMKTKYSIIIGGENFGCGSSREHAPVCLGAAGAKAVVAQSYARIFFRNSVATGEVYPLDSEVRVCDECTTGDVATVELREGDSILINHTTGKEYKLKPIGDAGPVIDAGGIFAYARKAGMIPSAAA

For assay [6], the target named is T6, isopropylmalate isomerase (IPMI) small subunit LeuD1 (Arabidopsis thaliana) (UniProt Q9ZW84).
T6 sequence: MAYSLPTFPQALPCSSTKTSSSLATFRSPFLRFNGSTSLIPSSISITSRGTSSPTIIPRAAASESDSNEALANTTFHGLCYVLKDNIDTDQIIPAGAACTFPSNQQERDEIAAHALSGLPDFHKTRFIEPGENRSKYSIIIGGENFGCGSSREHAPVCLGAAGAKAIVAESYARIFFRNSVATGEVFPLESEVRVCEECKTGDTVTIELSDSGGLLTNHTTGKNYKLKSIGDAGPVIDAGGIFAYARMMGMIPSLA

The target of assay [7] is T7, methylthioalkylmalate synthase 3 (MAM3) (Arabidopsis thaliana) (UniProt Q9FN52).
T7 sequence: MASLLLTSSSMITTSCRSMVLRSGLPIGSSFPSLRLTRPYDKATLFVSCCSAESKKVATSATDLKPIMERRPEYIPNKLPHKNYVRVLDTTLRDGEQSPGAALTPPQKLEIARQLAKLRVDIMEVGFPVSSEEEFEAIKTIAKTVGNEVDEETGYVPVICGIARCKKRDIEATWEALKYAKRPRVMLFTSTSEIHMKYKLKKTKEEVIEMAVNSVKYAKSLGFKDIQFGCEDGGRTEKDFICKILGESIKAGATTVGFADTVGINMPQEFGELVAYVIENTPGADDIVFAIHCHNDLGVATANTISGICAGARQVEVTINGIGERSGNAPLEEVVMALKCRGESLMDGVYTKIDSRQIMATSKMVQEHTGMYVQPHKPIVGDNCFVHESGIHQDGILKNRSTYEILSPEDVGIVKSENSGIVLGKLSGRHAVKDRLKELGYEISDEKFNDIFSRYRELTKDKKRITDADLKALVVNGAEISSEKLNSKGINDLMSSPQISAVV

B1: isopropylmalate dehydrogenase 3 (IPMDH3) (enzyme, UniProt Q9SA14 1-404)
chain: T1 sequence
In the case of B1, the binding result in assay [1] is listed as “binds weakly”.

B2: isopropylmalate dehydrogenase 2 (IPMDH2) (enzyme, UniProt P93832 1-405)
chain: T2 sequence
Regarding B2, the binding result in assay [1] and in assay [2] was “binds” each time.

B3: methylthioalkylmalate synthase 3 (MAM3) (enzyme, UniProt Q9FN52 1-503)
chain: T7 sequence
In the case of B3, the binding entry in assay [3], in assay [1], in assay [4], in assay [5], in assay [6] and in assay [2] was “no binding” throughout.

B4: isopropylmalate dehydrogenase 1 (IPMDH1) (enzyme, UniProt Q9FMT1 1-409)
chain: T4 sequence
Turning to B4, the binding result in assay [1], in assay [4] and in assay [2] was “binds” throughout.

B5: methylthioalkylmalate synthase 1 (MAM1) (enzyme, UniProt Q9FG67 1-506)
chain: MASSLLTSSVMIPTTGSTVVGRSVLPFQSSLHSLRLTHSYKNPALFISCCSSVSKNAATSSTDLKPVVERWPEYIPNKLPDGNYVRVFDTTLRDGEQSPGGSLTPPQKLEIARQLAKLRVDIMEVGFPGSSEEELETIKTIAKTVGNEVDEETGYVPVICAIARCKHRDIEATWEALKYAKRPRILVFTSTSDIHMKYKLKKTQEEVIEMAVSSIRFAKSLGFNDIQFGCEDGGRSDKDFLCKILGEAIKAGVTVVTIGDTVGINMPHEYGELVTYLKANTPGIDDVVVAVHCHNDLGLATANSIAGIRAGARQVEVTINGIGERSGNASLEEVVMALKCRGAYVINGVYTKIDTRQIMATSKMVQEYTGLYVQAHKPIVGANCFVHESGIHQDGILKNRSTYEILSPEDIGIVKSQNSGLVLGKLSGRHAVKDRLKELGYELDDEKLNAVFSLFRDLTKNKKRITDADLKALVTSSDEISLEKLNGANGLKSNGYIPVPQVSSNV
With B5, the binding entry in assay [3], in assay [7], in assay [1], in assay [4], in assay [5] and in assay [6] was “no binding” in each case. Further, in assay [2], the binding result was “no binding”.
